Some of the results follow.
B1: chr15:74179522:74179623:-|3pUTR|ENSG00000137868|msi1|FALSE|unique (ssRNA)
RNA: GGGAGUUCUACAGUCCGACGAUCUCAUGACUCAGACCAGGUCCCACACUGAGCUGCCCACACUCGAGAGCCAGAUAUUUUUGUAGUUUUUAUGCCUUUGGCUAUUAUGAAAGAGGUUAGUGUGUUCCCUGCAAUAAACUUGUUCAACAGAGGAUUGAGCAUCA
B2: chr20:63196482:63196583:-|3pUTR|ENSG00000149658|msi1|FALSE|unique (ssRNA)
RNA: GGGAGUUCUACAGUCCGACGAUCUGAUUUUUGCCCAGAUGGAUCUGCAUUUAUUUGUACUUUUUCUAUGUAUUAUAAUCCUGUAGAAGUCACUAAUAAAGGAGUAUUUUUUUUGUCAGCUUAUCAAUCAGACUGAUCUAAUGUCAACAGAGGAUUGAGCAUCA
B3: chr16:66721972:66722075:-|3pUTR|ENSG00000135720|unk|total|mutant (ssRNA)
RNA: GGGAGUUCUACAGUCCGACGAUCUUUUUAAUUCAGUUUUUUAAAAAAACAAAUGUAUUGUGGCUUCCAGUUACCAGGUUGUCCCGGUAAUGACAGUAAACUGACUGCCGAAUGAUAAUUGUGGUACCGUGACCAACCGAUGCCCAACAGAGGAUUGAGCAUCA
B4: chr4:108667705:108667793:+|3pUTR|ENSG00000198856|msi1_unk|total|mutant (ssRNA)
RNA: GGGAGUUCUACAGUCCGACGAUCUCUGGACAGUUGAUCAGCUUUACCUAUGGUGCUUUGCCUUUAACCCGAGUGUGUGAUGGCCGAUUAUUUCAGAUAUGUAUGUAAAACUGUUUCCUGAACAAUAAGAUGUAUGAACGGAGCCAACAGAGGAUUGAGCAUCA
B5: chr9:132694550:132694651:+|3pUTR|ENSG00000125484|unk|FALSE|bound_elsewhere (ssRNA)
RNA: GGGAGUUCUACAGUCCGACGAUCUUCCUGAAGAUUACAUAUCAGUGUCCUGCGUUUUUAUCUAAUAUUAGAGCUGAGGUUCCUAGGAAAAUUUUGAAGUGGGGAAGAUUAUGGAGAAAAUGAAAUGGAAAUUUGGGGAGGGUGCAACAGAGGAUUGAGCAUCA
B6: chr1:86745841:86745942:+|3pUTR|ENSG00000097033|msi1|total|mutant (ssRNA)
RNA: GGGAGUUCUACAGUCCGACGAUCAUGGUGCAGUUCAGAAUUGUUUAAAUAAGCUCUGUGCCACUGAGCUUAAUCUGAAAGUACCGUGACAUGUGAAGGAUGCACAUAUGAAUGAAAAACUAAAAUAAUUGCCGGCUCUUCUAUCAACAGAGGAUUGAGCAUCA
B7: chr11:85659139:85659240:-|3pUTR|ENSG00000137504|msi1|FALSE|unique (ssRNA)
RNA: GGGAGUUCUACAGUCCGACGAUCGUCUGAUUUAGUAAAAUUUUAAAGCUAAAUAAUCUGAUGACUCUUGAAAGUUUAAUUGGUAGUAUGACAUUUAUGUUUUUUUCCCCCAGACUCACAGCCAAUACAAAGUUUUGAGACUCCCAACAGAGGAUUGAGCAUCA
B8: chr15:58597255:58597356:-|3pUTR|ENSG00000137845|unk|total|mutant (ssRNA)
RNA: GGGAGUUCUACAGUCCGACGAUCUGGAAAAGGAACCCAAUUUUCUUAUGAACAGAUAUUUUUAACUUAAUGGCACAAAGUCUCCGAAUAUUAUUAUGUGCCCCGUGUUCCCUGUUCUUCGUUGCUGCAUUUUCUUCACUUGCACAACAGAGGAUUGAGCAUCA
B9: chr9:26926431:26926536:-|CDS|ENSG00000137055|unk|total|mutant (ssRNA)
RNA: GGGAGUUCUACAGUCCGACGAUCAGAGGUUUGGCAAUUUUGAGUGAAACAGAAUUUCUUUCCUGUGCAAAUGAUGCCCGUAUCCGAAGGUGGCAAAUCACUGGCGAGUGUCUUGAAGUAUAUUAUGGACAUACAAAUUAUAUUCAACAGAGGAUUGAGCAUCA
B10: ENSG00000100350:stop:overlap|stop_codon|ENSG00000100350|stop_codon|NA|stop_codon (ssRNA)
RNA: GGGAGUUCUACAGUCCGACGAUCGGCGACCAAGAGCCACUAGGUUCCCCCCUGGCUCCAGGGCCUCUGGCUCAGUCCGUCGAUAGCAACAAAGAGGAGCUCUGACUGUCCCUUCCUAAGCUGUGGGCACAGUGGCCAGGCCUCCAACAGAGGAUUGAGCAUCA
B11: chr2:200815332:200815484:+|CDS|ENSG00000082153|unk|total|mutant (ssRNA)
RNA: GGGAGUUCUACAGUCCGACGAUCUCAGUUUCAAGACUGUAUUAUUCAAGGCUUAACUGAAACCGGUACUGAUUUGGAAGCAGCCGCUAAGUUUCUUGAUGCUUCUGGAGCAAAACUUGAUUACCGUCGAUAUGCAGAAACACUCAACAGAGGAUUGAGCAUCA
B12: ENSG00000147955:stop:overlap|stop_codon|ENSG00000147955|stop_codon|NA|stop_codon (ssRNA)
RNA: GGGAGUUCUACAGUCCGACGAUCCUUCCACCAGUGGAGAGAGGGCACCACCAAAAGUGAGGUCUUCUACCCAGGGGAGACGGUAGUACACGGGCCUGGUGAGGCAACAGCUGUGGAGUGGGGGCCAAACACAUGGAUGGUGGACAACAGAGGAUUGAGCAUCA
B13: ENSG00000066855:stop:overlap|stop_codon|ENSG00000066855|stop_codon|NA|stop_codon (ssRNA)
RNA: GGGAGUUCUACAGUCCGACGAUCGAGUGUUGUCCCUUCCAGCUGGCUUUAUUCAGCCCCACGUGUCCAAGCAUUGUCUGGGAUAGCCUUGUAUUGGAAAACCUGGCCCAUUCUGUAAAUAAAGGCUCCACUAGAAAAGACUCGCAACAGAGGAUUGAGCAUCA
B14: chr1:23559171:23559278:-|CDS|ENSG00000117318|unk|FALSE|unique (ssRNA)
RNA: GGGAGUUCUACAGUCCGACGAUCAACCACUGCUACUCCCGCCUGCGGGAACUGGUACCCGGAGUCCCGAGAGGCACUCAGCUUAGCCAGGUGGAAAUCCUACAGCGCGUCAUCGACUACAUUCUCGACCUGCAGGUAGUCCUGCAACAGAGGAUUGAGCAUCA

target: MSI1 full-length (mouse, UniProt Q61474 1-362); assay: nsRBNS (natural sequence RNA bind-n-seq); RBNS binding buffer (assumed for nsRBNS): 25 mM Tris pH 7.5, 150 mM KCl, 3 mM MgCl2, 0.01% Triton X-100, 500 ug/ml BSA, 20 U/ml SUPERase-In, 4 C; UNK is unkempt and MSI1 is Musashi-1; names of the RNAs are library labels; protein concentration not given here; high values mean tight binding
UniProt Q61474, sequence (Q61474 whole entry): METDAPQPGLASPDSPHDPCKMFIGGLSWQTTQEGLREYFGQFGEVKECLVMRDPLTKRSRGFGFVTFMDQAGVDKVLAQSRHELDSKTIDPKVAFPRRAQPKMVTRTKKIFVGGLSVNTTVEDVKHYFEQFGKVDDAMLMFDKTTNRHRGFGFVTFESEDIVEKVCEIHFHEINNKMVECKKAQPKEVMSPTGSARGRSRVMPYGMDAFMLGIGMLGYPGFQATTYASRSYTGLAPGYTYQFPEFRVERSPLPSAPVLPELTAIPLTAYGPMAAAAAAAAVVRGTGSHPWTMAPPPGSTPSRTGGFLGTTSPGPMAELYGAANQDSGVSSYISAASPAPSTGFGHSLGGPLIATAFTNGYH

Binder | binding signal [enrichment R]
B1 | 4.24
B2 | 1.04
B3 | 0.218
B4 | 0.314
B5 | 1.87
B6 | 0.235
B7 | 1.21
B8 | 1.11
B9 | 0.34
B10 | 0.434
B11 | 0.211
B12 | 0.437
B13 | 0.548
B14 | 0.484
